Laboratory results: article PMC12209456, “Serine/threonine/tyrosine kinase 1 drives pancreatic carcinogenesis via GSK3β sequestration-mediated Wnt/β-catenin pathway hyperactivation” (Signal Transduction and Targeted Therapy, 2025)
Where a chain is given by its changes, count along the chain named. No constants are given. Whether binding was seen depends on the method and setting. Binding seen in cells or lysates may run through a third protein. Some entries that bind do so weakly or less than the wild type. For some of these results: Tags and fused reporters may be left off the sequences shown. One block for each substance: values may come before it.

By UniProt entry, the sequences of proteins in these tests, tags left out. Where a name states a change or a piece, a line headed by the entry shows the natural chain unless it says otherwise. Residues count along the entry.
UniProt P35222: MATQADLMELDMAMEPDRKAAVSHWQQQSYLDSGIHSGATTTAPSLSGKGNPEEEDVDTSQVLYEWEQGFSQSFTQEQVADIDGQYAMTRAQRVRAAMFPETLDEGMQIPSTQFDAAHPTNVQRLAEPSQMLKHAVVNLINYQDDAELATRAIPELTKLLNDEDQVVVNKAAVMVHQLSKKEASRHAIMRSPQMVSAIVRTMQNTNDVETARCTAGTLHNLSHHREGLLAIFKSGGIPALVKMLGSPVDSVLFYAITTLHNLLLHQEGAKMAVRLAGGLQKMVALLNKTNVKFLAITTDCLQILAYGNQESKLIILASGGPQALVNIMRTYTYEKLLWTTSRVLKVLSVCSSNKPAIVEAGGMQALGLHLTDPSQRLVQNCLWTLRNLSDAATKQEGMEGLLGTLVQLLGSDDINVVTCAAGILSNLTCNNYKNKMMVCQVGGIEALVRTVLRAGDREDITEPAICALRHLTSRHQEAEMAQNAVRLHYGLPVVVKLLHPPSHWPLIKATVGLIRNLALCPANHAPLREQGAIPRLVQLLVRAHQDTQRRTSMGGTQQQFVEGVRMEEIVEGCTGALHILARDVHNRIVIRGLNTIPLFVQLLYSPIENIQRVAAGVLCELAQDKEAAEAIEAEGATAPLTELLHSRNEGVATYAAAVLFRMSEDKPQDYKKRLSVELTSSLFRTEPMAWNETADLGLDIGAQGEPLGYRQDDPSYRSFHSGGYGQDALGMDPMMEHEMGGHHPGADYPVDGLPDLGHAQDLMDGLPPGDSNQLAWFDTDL
UniProt O75581, residues 20-1613: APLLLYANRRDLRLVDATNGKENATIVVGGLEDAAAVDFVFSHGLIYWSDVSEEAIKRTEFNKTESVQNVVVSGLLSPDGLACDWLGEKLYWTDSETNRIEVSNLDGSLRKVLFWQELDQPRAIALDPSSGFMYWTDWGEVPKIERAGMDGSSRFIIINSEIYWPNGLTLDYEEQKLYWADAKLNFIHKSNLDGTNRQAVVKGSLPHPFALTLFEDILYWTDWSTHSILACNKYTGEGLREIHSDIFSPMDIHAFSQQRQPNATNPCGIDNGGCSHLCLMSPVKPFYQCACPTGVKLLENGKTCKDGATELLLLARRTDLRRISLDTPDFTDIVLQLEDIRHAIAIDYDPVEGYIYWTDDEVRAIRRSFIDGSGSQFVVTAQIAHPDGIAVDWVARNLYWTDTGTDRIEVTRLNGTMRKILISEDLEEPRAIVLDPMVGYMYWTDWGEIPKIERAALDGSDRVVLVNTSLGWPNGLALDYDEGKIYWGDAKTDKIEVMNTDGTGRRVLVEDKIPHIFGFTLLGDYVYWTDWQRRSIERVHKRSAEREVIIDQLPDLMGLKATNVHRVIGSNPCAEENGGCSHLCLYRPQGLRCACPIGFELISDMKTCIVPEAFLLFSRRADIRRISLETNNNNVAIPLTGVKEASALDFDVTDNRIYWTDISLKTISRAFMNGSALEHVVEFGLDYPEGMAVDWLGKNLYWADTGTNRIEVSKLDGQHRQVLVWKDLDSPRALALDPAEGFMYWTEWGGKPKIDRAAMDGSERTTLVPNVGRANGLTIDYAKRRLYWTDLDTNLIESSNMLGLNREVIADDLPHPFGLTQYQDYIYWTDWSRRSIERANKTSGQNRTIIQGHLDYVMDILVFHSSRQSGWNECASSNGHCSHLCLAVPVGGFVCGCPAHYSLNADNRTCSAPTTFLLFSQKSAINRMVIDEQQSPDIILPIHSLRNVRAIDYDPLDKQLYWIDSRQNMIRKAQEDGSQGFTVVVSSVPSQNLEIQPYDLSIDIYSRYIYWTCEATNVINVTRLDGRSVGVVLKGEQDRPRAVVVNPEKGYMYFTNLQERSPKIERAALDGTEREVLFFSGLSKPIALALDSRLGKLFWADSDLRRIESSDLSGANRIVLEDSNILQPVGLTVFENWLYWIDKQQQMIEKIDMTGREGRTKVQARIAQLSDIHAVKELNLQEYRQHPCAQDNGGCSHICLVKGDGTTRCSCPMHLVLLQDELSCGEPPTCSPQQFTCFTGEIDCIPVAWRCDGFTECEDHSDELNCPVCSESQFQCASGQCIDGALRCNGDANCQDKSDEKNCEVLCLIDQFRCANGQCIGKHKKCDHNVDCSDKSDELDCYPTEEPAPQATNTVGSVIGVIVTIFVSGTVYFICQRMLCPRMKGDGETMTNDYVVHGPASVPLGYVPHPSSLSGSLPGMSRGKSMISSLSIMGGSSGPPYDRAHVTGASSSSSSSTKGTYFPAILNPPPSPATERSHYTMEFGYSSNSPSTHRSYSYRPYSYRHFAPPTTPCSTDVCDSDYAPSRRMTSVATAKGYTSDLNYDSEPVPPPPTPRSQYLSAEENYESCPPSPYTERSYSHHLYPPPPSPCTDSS
UniProt Q96CW1: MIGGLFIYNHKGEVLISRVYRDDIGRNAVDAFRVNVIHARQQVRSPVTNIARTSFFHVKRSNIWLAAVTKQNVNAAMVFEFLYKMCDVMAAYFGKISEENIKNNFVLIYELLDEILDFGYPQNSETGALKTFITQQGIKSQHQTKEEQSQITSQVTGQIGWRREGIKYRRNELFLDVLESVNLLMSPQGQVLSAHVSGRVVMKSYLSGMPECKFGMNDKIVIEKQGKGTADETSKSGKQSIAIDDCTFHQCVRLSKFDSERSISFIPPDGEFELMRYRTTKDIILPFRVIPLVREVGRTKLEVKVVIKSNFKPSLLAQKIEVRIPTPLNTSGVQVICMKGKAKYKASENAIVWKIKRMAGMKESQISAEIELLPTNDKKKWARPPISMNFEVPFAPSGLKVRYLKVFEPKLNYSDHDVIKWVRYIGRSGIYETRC
UniProt P49841: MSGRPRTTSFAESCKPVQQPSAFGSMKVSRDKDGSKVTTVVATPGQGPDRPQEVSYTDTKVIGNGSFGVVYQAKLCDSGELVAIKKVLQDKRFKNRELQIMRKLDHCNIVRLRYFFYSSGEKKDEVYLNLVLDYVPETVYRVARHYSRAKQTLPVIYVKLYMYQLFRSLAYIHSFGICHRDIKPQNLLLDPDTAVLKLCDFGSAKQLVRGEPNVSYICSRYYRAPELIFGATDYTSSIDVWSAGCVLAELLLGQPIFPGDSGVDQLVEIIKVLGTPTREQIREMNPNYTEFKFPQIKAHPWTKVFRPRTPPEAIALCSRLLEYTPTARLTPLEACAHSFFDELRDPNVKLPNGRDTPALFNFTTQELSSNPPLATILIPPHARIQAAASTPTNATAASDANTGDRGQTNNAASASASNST
UniProt O15169: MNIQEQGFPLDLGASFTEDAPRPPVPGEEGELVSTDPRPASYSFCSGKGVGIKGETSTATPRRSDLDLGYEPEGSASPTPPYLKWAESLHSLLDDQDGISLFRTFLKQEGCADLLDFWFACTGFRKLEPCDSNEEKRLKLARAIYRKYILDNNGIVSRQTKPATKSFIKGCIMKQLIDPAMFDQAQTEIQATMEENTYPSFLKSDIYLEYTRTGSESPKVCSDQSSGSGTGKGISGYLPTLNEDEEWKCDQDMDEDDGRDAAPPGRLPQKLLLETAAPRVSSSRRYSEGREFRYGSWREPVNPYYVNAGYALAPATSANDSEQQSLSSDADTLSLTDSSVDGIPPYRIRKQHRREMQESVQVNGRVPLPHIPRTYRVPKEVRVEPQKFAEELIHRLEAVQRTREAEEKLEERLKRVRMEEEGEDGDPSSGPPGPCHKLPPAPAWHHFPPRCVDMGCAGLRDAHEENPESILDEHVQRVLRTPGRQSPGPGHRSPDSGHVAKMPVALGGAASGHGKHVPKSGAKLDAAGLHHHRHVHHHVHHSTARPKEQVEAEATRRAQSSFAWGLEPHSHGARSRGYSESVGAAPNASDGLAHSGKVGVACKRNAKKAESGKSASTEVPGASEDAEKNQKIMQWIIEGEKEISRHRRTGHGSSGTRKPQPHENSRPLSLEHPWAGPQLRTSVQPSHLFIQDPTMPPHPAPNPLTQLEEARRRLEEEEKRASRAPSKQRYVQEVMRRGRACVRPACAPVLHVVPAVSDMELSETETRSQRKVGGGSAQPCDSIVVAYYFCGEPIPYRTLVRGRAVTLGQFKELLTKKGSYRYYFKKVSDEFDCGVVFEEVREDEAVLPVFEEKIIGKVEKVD
UniProt P51451: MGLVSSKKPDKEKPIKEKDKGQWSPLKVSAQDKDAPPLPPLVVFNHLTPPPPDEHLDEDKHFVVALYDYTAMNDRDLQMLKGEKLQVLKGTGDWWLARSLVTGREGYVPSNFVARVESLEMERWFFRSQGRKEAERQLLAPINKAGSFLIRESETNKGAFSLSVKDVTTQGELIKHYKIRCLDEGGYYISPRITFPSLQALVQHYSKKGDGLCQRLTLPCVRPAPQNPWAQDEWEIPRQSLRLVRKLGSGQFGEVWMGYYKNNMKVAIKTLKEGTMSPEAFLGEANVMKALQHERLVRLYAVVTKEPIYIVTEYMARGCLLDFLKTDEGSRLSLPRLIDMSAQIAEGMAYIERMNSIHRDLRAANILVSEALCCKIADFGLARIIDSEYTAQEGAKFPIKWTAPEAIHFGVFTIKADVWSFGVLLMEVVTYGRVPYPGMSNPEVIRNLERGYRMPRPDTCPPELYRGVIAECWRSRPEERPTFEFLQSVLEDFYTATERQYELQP

How the values were obtained:
[1] = biological target: β-catenin, endogenous (human (endogenous in HEK293T, AsPC-1, PANC-1, SW1990, MIA-PACA-2)) (UniProt P35222); test: co-IP; endogenous Axin1, GSK3β and β-catenin in AsPC-1 cells upon STYK1-driving peptides
[2] = biological target: T1, Serine/threonine/tyrosine kinase 1 (STYK1), endogenous (human (endogenous in AsPC-1, PANC-1, SW1990, MIA-PACA-2)) (UniProt Q6J9G0); test: co-IP; endogenous proteins, co-IP/Western with specific antibodies in AsPC-1, PANC-1, SW1990, MIA-PACA-2 cells
T1 sequence: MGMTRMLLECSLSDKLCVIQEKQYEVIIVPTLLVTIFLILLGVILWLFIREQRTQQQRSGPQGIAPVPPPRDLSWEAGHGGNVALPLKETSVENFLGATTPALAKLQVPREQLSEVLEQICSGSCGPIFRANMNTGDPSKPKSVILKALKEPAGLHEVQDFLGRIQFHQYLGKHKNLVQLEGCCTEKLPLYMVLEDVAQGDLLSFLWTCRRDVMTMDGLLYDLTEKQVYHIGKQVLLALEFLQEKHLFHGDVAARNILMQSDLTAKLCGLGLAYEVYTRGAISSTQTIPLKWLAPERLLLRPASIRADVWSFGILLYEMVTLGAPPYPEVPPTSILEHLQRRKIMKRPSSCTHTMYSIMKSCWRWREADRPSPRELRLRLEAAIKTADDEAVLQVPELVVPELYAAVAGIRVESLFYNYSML

[3] = biological target: T2, HA-tagged STYK1 SS1 mutant (Y191/L194 mutated to alanine) (UniProt Q6J9G0); test: co-IP; Flag-tagged AP1/2 μ subunits with HA-tagged STYK1 wild type or SS1, SS2, SS3 mutants
T2 sequence: T1 sequence with Y191A, L194A

[4] = biological target: T3, HA-tagged wild-type STYK1 (UniProt Q6J9G0); test: as above
T3 sequence: T1 sequence

[5] = biological target: T4, GST-tagged STYK1 ICD (aa 26-422) (UniProt Q6J9G0); test: pull-down; GST pull-down with STYK1 ICD and truncation mutants of the partner from HEK293T transfectants; only the target purified
T4 sequence: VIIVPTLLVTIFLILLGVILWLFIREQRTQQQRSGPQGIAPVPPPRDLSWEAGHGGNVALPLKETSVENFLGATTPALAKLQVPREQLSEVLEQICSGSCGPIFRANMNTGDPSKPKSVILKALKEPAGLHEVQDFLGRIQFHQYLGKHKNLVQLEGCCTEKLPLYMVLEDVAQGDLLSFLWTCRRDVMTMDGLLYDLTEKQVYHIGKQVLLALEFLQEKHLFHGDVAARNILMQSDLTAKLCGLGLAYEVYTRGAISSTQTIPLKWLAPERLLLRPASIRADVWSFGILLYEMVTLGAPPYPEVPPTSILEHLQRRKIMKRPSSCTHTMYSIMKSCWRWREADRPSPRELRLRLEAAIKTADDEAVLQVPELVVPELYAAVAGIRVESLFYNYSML

[6] = biological target: Low-density lipoprotein receptor-related protein 6 (LRP6) (UniProt O75581); test: co-IP; LRP6 immunoprecipitate blotted for p-GSK3β Y216; STYK1 depletion, with or without Wnt3a
Flag-tagged STYK1 [7] = biological target: T5, Flag-tagged STYK1 (UniProt Q6J9G0); test: co-IP; Flag-STYK1 with TEC/SRC kinase subfamily members and HA-tagged BLK mutants in HEK293T cells
T5 sequence: T1 sequence

[8] = biological target: T4, GST-tagged STYK1 ICD (aa 26-422); test: pull-down; purified recombinant GST-tagged STYK1 ICD with BLK (Supplementary Fig. 7a, not shown; source of BLK not told); only the target purified
Flag-tagged STYK1 [9] = biological target: T5, Flag-tagged STYK1; test: co-IP; β-catenin Arm repeat truncations with STYK1 in HEK293T transfectants (text: co-immunoprecipitation; legend: GST pull-down)

Substance: Flag-tagged AP2 μ subunit (from UniProt Q96CW1 1-435)
binding [3]: no binding | binding [4]: binds

Substance: GSK3β kinase domain (123-353 aa) (from UniProt P49841 123-353) (domain or fragment)
binding [5]: binds

Substance: GSK3β phosphorylated at Y216 (p-GSK3β Y216) (from UniProt P49841 1-420)
binding [6]: binds

Substance: β-catenin Arm repeats 10-12 (530-666 aa) (from UniProt P35222 530-666) (domain or fragment)
binding (Flag-tagged STYK1 [9]): binds

Substance: β-catenin Arm repeats region (151-666 aa) (from UniProt P35222 151-666) (domain or fragment)
binding [5]: binds

Substance: β-catenin, endogenous (from UniProt P35222 1-781)
binding [2]: binds

Results, then the substance that gave them:

binding [1]: binds | binding [2]: binds
Substance: Axin1, endogenous (from UniProt O15169 1-862)

binding [2]: binds
Substance: Glycogen synthase kinase 3β (GSK3β), endogenous (from UniProt P49841 1-420)

binding (Flag-tagged STYK1 [7]): binds | binding [8]: binds
Substance: HA-tagged BLK kinase (from UniProt P51451 1-505) (enzyme)

binding (Flag-tagged STYK1 [9]): binds
Substance: β-catenin Arm repeats 1-3 (151-276 aa) (from UniProt P35222 151-276) (domain or fragment)
